Laboratory results: patent US8722849B2, “Polypeptides” (Novo Nordisk A/S, priority 2011, dated 2014)
At least one read-out could not be matched to a standard name with certainty. Starred links: 1 amine or outer side, 2 acyl side, 3 side chain; linkers in the order of their positions; H or OH if unused. Positions of bridges follow the written chain, without caps; N, C: chain ends. Residues, ends and D or L forms follow the SMILES beside them. *: point of attachment. C20 diacid = O=C(O)CCCCCCCCCCCCCCCCCCC(=O)*; C18 diacid = O=C(O)CCCCCCCCCCCCCCCCC(=O)*; γGlu = O=C(O)[C@H](CCC(=O)[*:2])N[*:1]

Experiment: Assay (III) ThT fibrillation assay for physical stability
Type: physicochemical
Details: ThT fibrillation assay
Summary of the method: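 Freshly prepared formulations, pH-adjusted, with 1 μM ThT; four or eight replicates incubated at 37 °C under 960 rpm orbital shaking. Fluorescence (ex 444/em 485 nm) read every 20 min; […]. Peptide concentration measured by RP-HPLC before and after the run.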

Compound | ThT pH 4.0 recovery (%) | ThT pH 4.0 recovery [%]
CC[C@H](C)[C@H](NC(=O)[C@@H]1CCCN1C(=O)CNC(=O)[C@H](Cc1ccccc1)NC(=O)[C@H](CC(N)=O)NC(=O)[C@H](CC(N)=O)NC(=O)[C@H](CO)NC(=O)[C@H](CO)NC(=O)[C@H](Cc1c[nH]cn1)NC(=O)[C@@H](NC(=O)[C@H](CC(C)C)NC(=O)[C@H](Cc1ccccc1)NC(=O)[C@H](CCC(=O)O)NC(=O)[C@H](C)NC(=O)[C@H](CC(C)C)NC(=O)[C@H](CCCNC(=N)N)NC(=O)[C@H](CCC(N)=O)NC(=O)[C@@H](NC(=O)[C@H](C)NC(=O)[C@@H]1CSSC[C@H](NC(=O)[C@H](Cc2c[nH]cn2)NC(=O)CC[C@H](NC(=O)CCCCCCCCCCCCCCCCCCC(=O)O)C(=O)O)C(=O)N[C@@H](CC(N)=O)C(=O)N[C@@H]([C@@H](C)O)C(=O)N[C@@H](C)C(=O)N[C@@H]([C@@H](C)O)C(=O)N1)[C@@H](C)O)C(C)C)C(=O)N[C@@H](CC(C)C)C(=O)N1CCC[C@H]1C(=O)N1CCC[C@H]1C(=O)N[C@H](C(=O)N[C@@H](CC(N)=O)C(=O)N[C@H](C(=O)NCC(=O)N[C@@H](CO)C(=O)N[C@@H](CC(N)=O)C(=O)N[C@H](C(=O)N1CCC[C@H]1C(N)=O)[C@@H](C)O)C(C)C)[C@@H](C)O [Example 109, N-alpha-[(S)-4-Carboxy-4-(19-carboxynonadecanoylamino)butyryl]-[His1,Glu14,Pro37]-pramlintide] ({C20 diacid-γGlu}-HCNTATCATQRLAEFLVHSSNNFGPILPPTNVGSNTP-NH2; disulfide 2-7 (inferred); C-terminus assumed) | 2.4 | 
{C20 diacid-γGlu}-SSGSSGHCNTATCATQRLAEFLHHSSNNFGPILPPTNVGSNTY-NH2 (disulfide 8-13 (inferred); C-terminus assumed) [Example 44, N-alpha-[(S)-4-Carboxy-4-(19-carboxynonadecanoylamino)butyryl]-Ser-Ser-Gly-Ser-Ser-Gly-[His1,Glu14,His17]-pramlintide] | 3 | 
CC[C@H](C)[C@H](NC(=O)[C@@H]1CCCN1C(=O)CNC(=O)[C@H](Cc1ccccc1)NC(=O)[C@H](CC(N)=O)NC(=O)[C@H](CC(N)=O)NC(=O)[C@H](CO)NC(=O)[C@H](CO)NC(=O)[C@H](CCCNC(=N)N)NC(=O)[C@H](Cc1c[nH]cn1)NC(=O)[C@H](CC(C)C)NC(=O)[C@H](Cc1ccccc1)NC(=O)[C@H](CCC(=O)O)NC(=O)[C@H](C)NC(=O)[C@H](CC(C)C)NC(=O)[C@H](CCCNC(=N)N)NC(=O)[C@H](CCC(N)=O)NC(=O)[C@@H](NC(=O)[C@H](C)NC(=O)[C@@H]1CSSC[C@H](NC(=O)[C@H](CCCCN)NC(=O)CC[C@H](NC(=O)CCCCCCCCCCCCCCCCCCC(=O)O)C(=O)O)C(=O)N[C@@H](CC(N)=O)C(=O)N[C@@H]([C@@H](C)O)C(=O)N[C@@H](C)C(=O)N[C@@H]([C@@H](C)O)C(=O)N1)[C@@H](C)O)C(=O)N[C@@H](CC(C)C)C(=O)N1CCC[C@H]1C(=O)N1CCC[C@H]1C(=O)N[C@H](C(=O)N[C@@H](CC(N)=O)C(=O)N[C@H](C(=O)NCC(=O)N[C@@H](CO)C(=O)N[C@@H](CC(N)=O)C(=O)N[C@H](C(=O)N[C@@H](Cc1ccc(O)cc1)C(N)=O)[C@@H](C)O)C(C)C)[C@@H](C)O [Example 79, N-alpha-[(S)-4-Carboxy-4-(19-carboxynonadecanoylamino)butyryl]-[Glu14,His17,Arg18]-pramlintide] ({C20 diacid-γGlu}-KCNTATCATQRLAEFLHRSSNNFGPILPPTNVGSNTY-NH2; disulfide 2-7 (inferred)) | 35 | 
CC[C@H](C)[C@H](NC(=O)[C@@H]1CCCN1C(=O)CNC(=O)[C@H](Cc1ccccc1)NC(=O)[C@H](CC(N)=O)NC(=O)[C@H](CC(N)=O)NC(=O)[C@H](CO)NC(=O)[C@H](CO)NC(=O)[C@H](Cc1c[nH]cn1)NC(=O)[C@H](CCCNC(=N)N)NC(=O)[C@H](CC(C)C)NC(=O)[C@H](Cc1ccccc1)NC(=O)[C@H](CCC(=O)O)NC(=O)[C@H](C)NC(=O)[C@H](CC(C)C)NC(=O)[C@H](CCCNC(=N)N)NC(=O)[C@H](CCC(N)=O)NC(=O)[C@@H](NC(=O)[C@H](C)NC(=O)[C@@H]1CSSC[C@H](NC(=O)[C@H](CCCCN)NC(=O)CC[C@H](NC(=O)CCCCCCCCCCCCCCCCC(=O)O)C(=O)O)C(=O)N[C@@H](CC(N)=O)C(=O)N[C@@H]([C@@H](C)O)C(=O)N[C@@H](C)C(=O)N[C@@H]([C@@H](C)O)C(=O)N1)[C@@H](C)O)C(=O)N[C@@H](CC(C)C)C(=O)N1CCC[C@H]1C(=O)N1CCC[C@H]1C(=O)N[C@H](C(=O)N[C@@H](CC(N)=O)C(=O)N[C@H](C(=O)NCC(=O)N[C@@H](CO)C(=O)N[C@@H](CC(N)=O)C(=O)N[C@H](C(=O)N[C@@H](Cc1ccc(O)cc1)C(N)=O)[C@@H](C)O)C(C)C)[C@@H](C)O [Example 51, N-alpha-[(S)-4-Carboxy-4-(17-carboxyheptadecanoylamino)butyryl]-[Glu14,Arg17]-pramlintide] ({C18 diacid-γGlu}-KCNTATCATQRLAEFLRHSSNNFGPILPPTNVGSNTY-NH2; disulfide 2-7 (inferred); C-terminus assumed) | 73 | 73

Results, then the compound that gave them:

ThT pH 4.0 recovery (%) | ThT pH 4.0 recovery [%] | Compound
97 | 97 | CC[C@H](C)[C@H](NC(=O)[C@@H]1CCCN1C(=O)CNC(=O)[C@H](Cc1ccccc1)NC(=O)[C@H](CC(N)=O)NC(=O)[C@H](CC(N)=O)NC(=O)[C@H](CO)NC(=O)[C@H](CO)NC(=O)[C@H](Cc1c[nH]cn1)NC(=O)[C@H](Cc1c[nH]cn1)NC(=O)[C@H](CC(C)C)NC(=O)[C@H](Cc1ccccc1)NC(=O)[C@H](CCC(=O)O)NC(=O)[C@H](C)NC(=O)[C@H](CC(C)C)NC(=O)[C@H](CCCNC(=N)N)NC(=O)[C@H](CCC(N)=O)NC(=O)[C@@H](NC(=O)[C@H](C)NC(=O)[C@@H]1CSSC[C@H](NC(=O)[C@H](CCCCN)NC(=O)CC[C@H](NC(=O)CCCCCCCCCCCCCCCCC(=O)O)C(=O)O)C(=O)N[C@@H](CC(N)=O)C(=O)N[C@@H]([C@@H](C)O)C(=O)N[C@@H](C)C(=O)N[C@@H]([C@@H](C)O)C(=O)N1)[C@@H](C)O)C(=O)N[C@@H](CC(C)C)C(=O)N1CCC[C@H]1C(=O)N1CCC[C@H]1C(=O)N[C@H](C(=O)N[C@@H](CC(N)=O)C(=O)N[C@H](C(=O)NCC(=O)N[C@@H](CO)C(=O)N[C@@H](Cc1c[nH]cn1)C(=O)N[C@H](C(=O)N[C@@H](Cc1ccc(O)cc1)C(N)=O)[C@@H](C)O)C(C)C)[C@@H](C)O [Example 59, N-alpha-[(S)-4-Carboxy-4-(17-carboxyheptadecanoylamino)butyryl]-[Glu14,His17,His35]-pramlintide] ({C18 diacid-γGlu}-KCNTATCATQRLAEFLHHSSNNFGPILPPTNVGSHTY-NH2; disulfide 2-7 (inferred))
8 |  | CC[C@H](C)[C@H](NC(=O)[C@@H]1CCCN1C(=O)CNC(=O)[C@H](Cc1ccccc1)NC(=O)[C@H](CC(N)=O)NC(=O)[C@H](CC(N)=O)NC(=O)[C@H](CO)NC(=O)[C@H](CO)NC(=O)[C@H](Cc1c[nH]cn1)NC(=O)[C@H](Cc1c[nH]cn1)NC(=O)[C@H](CC(C)C)NC(=O)[C@H](Cc1ccccc1)NC(=O)[C@H](CCC(=O)O)NC(=O)[C@H](C)NC(=O)[C@H](CC(C)C)NC(=O)[C@H](CCCNC(=N)N)NC(=O)[C@H](CCC(N)=O)NC(=O)[C@@H](NC(=O)[C@H](C)NC(=O)[C@@H]1CSSC[C@H](NC(=O)[C@H](Cc2c[nH]cn2)NC(=O)[C@H](Cc2c[nH]cn2)NC(=O)CC[C@H](NC(=O)CCCCCCCCCCCCCCCCC(=O)O)C(=O)O)C(=O)N[C@@H](CC(N)=O)C(=O)N[C@@H]([C@@H](C)O)C(=O)N[C@@H](C)C(=O)N[C@@H]([C@@H](C)O)C(=O)N1)[C@@H](C)O)C(=O)N[C@@H](CC(C)C)C(=O)N1CCC[C@H]1C(=O)N1CCC[C@H]1C(=O)N[C@H](C(=O)N[C@@H](CC(N)=O)C(=O)N[C@H](C(=O)NCC(=O)N[C@@H](CO)C(=O)N[C@@H](CC(N)=O)C(=O)N[C@H](C(=O)N[C@@H](Cc1ccc(O)cc1)C(N)=O)[C@@H](C)O)C(C)C)[C@@H](C)O [Example 47, N-alpha-[(S)-4-Carboxy-4-(17-carboxyheptadecanoylamino)butyryl]-His-[His1,Glu14,His17]-pramlintide] ({C18 diacid-γGlu}-HHCNTATCATQRLAEFLHHSSNNFGPILPPTNVGSNTY-NH2; disulfide 3-8 (inferred); C-terminus assumed)
89 | 89 | CC[C@H](C)[C@H](NC(=O)[C@@H]1CCCN1C(=O)CNC(=O)[C@H](Cc1ccccc1)NC(=O)[C@H](CC(N)=O)NC(=O)[C@H](CC(N)=O)NC(=O)[C@H](CO)NC(=O)[C@H](CO)NC(=O)[C@H](Cc1c[nH]cn1)NC(=O)[C@H](Cc1c[nH]cn1)NC(=O)[C@H](CC(C)C)NC(=O)[C@H](Cc1ccccc1)NC(=O)[C@H](CCC(=O)O)NC(=O)[C@H](C)NC(=O)[C@H](CC(C)C)NC(=O)[C@H](CCCNC(=N)N)NC(=O)[C@H](CCC(N)=O)NC(=O)[C@@H](NC(=O)[C@H](C)NC(=O)[C@@H]1CSSC[C@H](NC(=O)[C@H](CCCNC(=N)N)NC(=O)CC[C@H](NC(=O)CCCCCCCCCCCCCCCCCCC(=O)O)C(=O)O)C(=O)N[C@@H](CC(N)=O)C(=O)N[C@@H]([C@@H](C)O)C(=O)N[C@@H](C)C(=O)N[C@@H]([C@@H](C)O)C(=O)N1)[C@@H](C)O)C(=O)N[C@@H](CC(C)C)C(=O)N1CCC[C@H]1C(=O)N1CCC[C@H]1C(=O)N[C@H](C(=O)N[C@@H](CC(N)=O)C(=O)N[C@H](C(=O)NCC(=O)N[C@@H](CO)C(=O)N[C@@H](Cc1c[nH]cn1)C(=O)N[C@H](C(=O)N[C@@H](Cc1ccc(O)cc1)C(N)=O)[C@@H](C)O)C(C)C)[C@@H](C)O [Example 95, N-alpha-[(S)-4-Carboxy-4-(19-carboxynonadecanoylamino)butyryl]-[Arg1,Glu14,His17,His35]-pramlintide] ({C20 diacid-γGlu}-RCNTATCATQRLAEFLHHSSNNFGPILPPTNVGSHTY-NH2; disulfide 2-7 (inferred))
